Measurements reported in paper PMC8007633, “The effect of Aspalathus linearis (Burm.f.) R.Dahlgren and its compounds on tyrosinase and melanogenesis” (Scientific Reports, 2021).

Tests used:
[1] = substrate: N[C@@H](Cc1ccc(O)c(O)c1)C(=O)O; experiment: purified protein, by the assay type; type: biochemical, mushroom; conditions: other: michaelis constant; pH 6.5; 37.0 °C
[2] = substrate: O=C(CCc1ccc(O)c(O)c1)c1c(O)cc(O)c(C2OC(CO)C(O)C(O)C2O)c1O; experiment: purified protein, by the assay type; conditions: other: compound as substrate, absence of L-dopa; pH 6.5; 37.0 °C
[3] = substrate: N[C@@H](Cc1ccc(O)c(O)c1)C(=O)O; experiment: Tyrosinase enzyme kinetics in the absence of the substrate (subversive substrate properties); type: biochemical, mushroom; conditions: other: compound as substrate, absence of L-dopa; pH 6.5; 37.0 °C

B1: mushroom tyrosinase (Agaricus bisporus) (protein)
chain: MSDKKSLMPLVGIPGEIKNRLNILDFVKNDKFFTLYVRALQVLQARDQSDYSSFFQLGGIHGLPYTEWAKAQPQLHLYKANYCTHGTVLFPTWHRAYESTWEQTLWEAAGTVAQRFTTSDQAEWIQAAKDLRQPFWDWGYWPNDPDFIGLPDQVIRDKQVEITDYNGTKIEVENPILHYKFHPIEPTFEGDFAQWQTTMRYPDVQKQENIEGMIAGIKAAAPGFREWTFNMLTKNYTWELFSNHGAVVGAHANSLEMVHNTVHFLIGRDPTLDPLVPGHMGSVPHAAFDPIFWMHHCNVDRLLALWQTMNYDVYVSEGMNREATMGLIPGQVLTEDSPLEPFYTKNQDPWQSDDLEDWETLGFSYPDFDPVKGKSKEEKSVYINDWVHKHYG
notes: purchased Sigma-Aldrich Co. LLC, St. Louis, MO, USA
- Km [1]: 143.80 ± 25.43 µM

B2: tyrosinase (Agaricus bisporus) (protein)
chain: MSDKKSLMPLVGIPGEIKNRLNILDFVKNDKFFTLYVRALQVLQARDQSDYSSFFQLGGIHGLPYTEWAKAQPQLHLYKANYCTHGTVLFPTWHRAYESTWEQTLWEAAGTVAQRFTTSDQAEWIQAAKDLRQPFWDWGYWPNDPDFIGLPDQVIRDKQVEITDYNGTKIEVENPILHYKFHPIEPTFEGDFAQWQTTMRYPDVQKQENIEGMIAGIKAAAPGFREWTFNMLTKNYTWELFSNHGAVVGAHANSLEMVHNTVHFLIGRDPTLDPLVPGHMGSVPHAAFDPIFWMHHCNVDRLLALWQTMNYDVYVSEGMNREATMGLIPGQVLTEDSPLEPFYTKNQDPWQSDDLEDWETLGFSYPDFDPVKGKSKEEKSVYINDWVHKHYG
notes: as for B1
- Km [2]: 1733 (± 660.6) µM
- kcat [2]: 41.3 s⁻¹
- Km [3]: 143.8 (± 25.4) µM
- kcat [3]: 13.7 s⁻¹
